The labels stand for the following.
T1: RBFOX1 RRM RbFoxmut (Fox-RRM*) (Homo sapiens, UniProt Q9NWB1 109-208, R118D;E147R;N151S;E152T)
T1 sequence: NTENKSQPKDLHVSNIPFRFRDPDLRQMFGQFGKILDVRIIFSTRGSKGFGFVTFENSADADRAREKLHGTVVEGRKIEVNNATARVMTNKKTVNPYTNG

B1: CUUCUUA (DNA:RNA)
RNA: GGGAGACCGGAAUUCAGAUUGUCCCUUCUUAUUAAAUCCCGUCGUAGCCACCA
DNA 1: CAATCTGAATTCCGGTCTCCC
DNA 2: TGGTGGCTACGACGGGATT
B2: UGUAAAA (DNA:RNA)
RNA: B1 RNA with C25U, U26G, C28A, U29A, U30A
DNA 1: CAATCTGAATTCCGGTCTCCC
DNA 2: TGGTGGCTACGACGGGATT
B3: UCUCGAG (DNA:RNA)
RNA: B1 RNA with C25U, U26C, U29G, U30A, A31G
DNA 1: CAATCTGAATTCCGGTCTCCC
DNA 2: TGGTGGCTACGACGGGATT
B4: GGUUUCU (DNA:RNA)
RNA: B1 RNA with C25G, U26G, C28U, U30C, A31U
DNA 1: CAATCTGAATTCCGGTCTCCC
DNA 2: TGGTGGCTACGACGGGATT
B5: CGAUCAC (DNA:RNA)
RNA: B1 RNA with U26G, U27A, C28U, U29C, U30A, A31C
DNA 1: CAATCTGAATTCCGGTCTCCC
DNA 2: TGGTGGCTACGACGGGATT
B6: UCUGAUG (DNA:RNA)
RNA: B1 RNA with C25U, U26C, C28G, U29A, A31G
DNA 1: CAATCTGAATTCCGGTCTCCC
DNA 2: TGGTGGCTACGACGGGATT
B7: GCGGUGA (DNA:RNA)
RNA: B1 RNA with C25G, U26C, U27G, C28G, U30G
DNA 1: CAATCTGAATTCCGGTCTCCC
DNA 2: TGGTGGCTACGACGGGATT
B8: GUCGUGU (DNA:RNA)
RNA: B1 RNA with C25G, U27C, C28G, U30G, A31U
DNA 1: CAATCTGAATTCCGGTCTCCC
DNA 2: TGGTGGCTACGACGGGATT
B9: UGGGUCU (DNA:RNA)
RNA: B1 RNA with C25U, U26G, U27G, C28G, U30C, A31U
DNA 1: CAATCTGAATTCCGGTCTCCC
DNA 2: TGGTGGCTACGACGGGATT
B10: AUUUAUA (DNA:RNA)
RNA: B1 RNA with C25A, C28U, U29A
DNA 1: CAATCTGAATTCCGGTCTCCC
DNA 2: TGGTGGCTACGACGGGATT
B11: AUUACCG (DNA:RNA)
RNA: B1 RNA with C25A, C28A, U29C, U30C, A31G
DNA 1: CAATCTGAATTCCGGTCTCCC
DNA 2: TGGTGGCTACGACGGGATT
B12: UAUGGGU (DNA:RNA)
RNA: B1 RNA with C25U, U26A, C28G, U29G, U30G, A31U
DNA 1: CAATCTGAATTCCGGTCTCCC
DNA 2: TGGTGGCTACGACGGGATT
B13: GAACUCU (DNA:RNA)
RNA: B1 RNA with C25G, U26A, U27A, U30C, A31U
DNA 1: CAATCTGAATTCCGGTCTCCC
DNA 2: TGGTGGCTACGACGGGATT
B14: GUCAGUG (DNA:RNA)
RNA: B1 RNA with C25G, U27C, C28A, U29G, A31G
DNA 1: CAATCTGAATTCCGGTCTCCC
DNA 2: TGGTGGCTACGACGGGATT
B15: ACGCGAU (DNA:RNA)
RNA: B1 RNA with C25A, U26C, U27G, U29G, U30A, A31U
DNA 1: CAATCTGAATTCCGGTCTCCC
DNA 2: TGGTGGCTACGACGGGATT
B16: GUUUGGA (DNA:RNA)
RNA: B1 RNA with C25G, C28U, U29G, U30G
DNA 1: CAATCTGAATTCCGGTCTCCC
DNA 2: TGGTGGCTACGACGGGATT
B17: UGCAGAG (DNA:RNA)
RNA: GGGAGACCGGAAUUCAGAUUGUCCUGCAGAGUUAAAUCCCGUCGUAGCCACCA
DNA 1: CAATCTGAATTCCGGTCTCCC
DNA 2: TGGTGGCTACGACGGGATT
B18: CCGGUUA (DNA:RNA)
RNA: B1 RNA with U26C, U27G, C28G
DNA 1: CAATCTGAATTCCGGTCTCCC
DNA 2: TGGTGGCTACGACGGGATT
B19: AGUCGGU (DNA:RNA)
RNA: B1 RNA with C25A, U26G, U29G, U30G, A31U
DNA 1: CAATCTGAATTCCGGTCTCCC
DNA 2: TGGTGGCTACGACGGGATT
B20: GACCGGU (DNA:RNA)
RNA: B17 RNA with U25G, G26A, A28C, A30G, G31U
DNA 1: CAATCTGAATTCCGGTCTCCC
DNA 2: TGGTGGCTACGACGGGATT

The record followed here is PMC9911399, “Two distinct binding modes provide the RNA-binding protein RbFox with extraordinary sequence specificity”.

Substitutions are numbered along the chain they refer to; changes in the protein carry UniProt numbers. This is one part of the list.

This test has as its target T1, RBFOX1 RRM RbFoxmut (Fox-RRM*). Description: EMSA; HiTS-Eq, 1 nM pool, 10 min; buffer printed only for the single-RNA assays: 10 mM Tris pH 7.5, 150 mM NaCl, 3.4 mM EDTA, 0.001% NP-40, 30 C. The conditions noted are these: tags: His6 N-terminal (pET28a); label: 5' 32P. Put shortly: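 Relative association constants, normalised to the cognate motif, were derived by comparing read counts of each RNA species with those of the control reaction. The RNA sequenced was the free fraction, separated by 8% native PAGE after a 10 min equilibration in 50 µL of 1 nM 5′-radiolabelled RNA (7 randomized nucleotides) with increasing concentrations of purified wild-type or mutant RbFox RRM.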
In the case of B1, the binding signal was 0.114 KA relative to UGCAUGU.

As for B2, the binding signal is 0.0891 KA relative to UGCAUGU.

For B3, the binding signal was 0.128 KA relative to UGCAUGU.

On to B4, for which the binding signal is 0.138 KA relative to UGCAUGU.

As for B5, the binding signal was 0.0607 KA relative to UGCAUGU.

Regarding B6, the binding signal was 0.116 KA relative to UGCAUGU.

For the molecule B7, the binding signal was 0.125 KA relative to UGCAUGU.

On to B8, for which the binding signal was 0.187 KA relative to UGCAUGU.

With B9, the binding signal was 0.118 KA relative to UGCAUGU.

Consider B10, for which the binding signal was 0.169 KA relative to UGCAUGU.

For B11, the binding signal was 0.115 KA relative to UGCAUGU.

B12: the binding signal was 0.108 KA relative to UGCAUGU.

Take B13: the binding signal was 0.053 KA relative to UGCAUGU.

As for B14, the binding signal was 0.133 KA relative to UGCAUGU.

With B15, the binding signal is 0.0702 KA relative to UGCAUGU.

Consider B16, for which the binding signal is 0.0824 KA relative to UGCAUGU.

As for B17, the binding signal is 0.126 KA relative to UGCAUGU.

For the molecule B18, the binding signal was 0.081 KA relative to UGCAUGU.

With B19, the binding signal is 0.105 KA relative to UGCAUGU.

Regarding B20, the binding signal was 0.0702 KA relative to UGCAUGU.
